Hit rate of the full screen: of about 310,000 compounds, about 14,000 (4.5%) showed an effect of 50% or more. The effect is printed as a negative number. This is one part of the list.
Biological target: human ether-à-go-go-related gene (hERG) potassium channel (human, UniProt Q12809)
Experiment: primary screen, population patch clamp on CHO cells stably expressing hERG
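Note: peak tail current of the secondary pulse compared with the same well before compound.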

human ether-à-go-go-related gene (hERG) potassium channel, sequence (Q12809 whole entry, looked up): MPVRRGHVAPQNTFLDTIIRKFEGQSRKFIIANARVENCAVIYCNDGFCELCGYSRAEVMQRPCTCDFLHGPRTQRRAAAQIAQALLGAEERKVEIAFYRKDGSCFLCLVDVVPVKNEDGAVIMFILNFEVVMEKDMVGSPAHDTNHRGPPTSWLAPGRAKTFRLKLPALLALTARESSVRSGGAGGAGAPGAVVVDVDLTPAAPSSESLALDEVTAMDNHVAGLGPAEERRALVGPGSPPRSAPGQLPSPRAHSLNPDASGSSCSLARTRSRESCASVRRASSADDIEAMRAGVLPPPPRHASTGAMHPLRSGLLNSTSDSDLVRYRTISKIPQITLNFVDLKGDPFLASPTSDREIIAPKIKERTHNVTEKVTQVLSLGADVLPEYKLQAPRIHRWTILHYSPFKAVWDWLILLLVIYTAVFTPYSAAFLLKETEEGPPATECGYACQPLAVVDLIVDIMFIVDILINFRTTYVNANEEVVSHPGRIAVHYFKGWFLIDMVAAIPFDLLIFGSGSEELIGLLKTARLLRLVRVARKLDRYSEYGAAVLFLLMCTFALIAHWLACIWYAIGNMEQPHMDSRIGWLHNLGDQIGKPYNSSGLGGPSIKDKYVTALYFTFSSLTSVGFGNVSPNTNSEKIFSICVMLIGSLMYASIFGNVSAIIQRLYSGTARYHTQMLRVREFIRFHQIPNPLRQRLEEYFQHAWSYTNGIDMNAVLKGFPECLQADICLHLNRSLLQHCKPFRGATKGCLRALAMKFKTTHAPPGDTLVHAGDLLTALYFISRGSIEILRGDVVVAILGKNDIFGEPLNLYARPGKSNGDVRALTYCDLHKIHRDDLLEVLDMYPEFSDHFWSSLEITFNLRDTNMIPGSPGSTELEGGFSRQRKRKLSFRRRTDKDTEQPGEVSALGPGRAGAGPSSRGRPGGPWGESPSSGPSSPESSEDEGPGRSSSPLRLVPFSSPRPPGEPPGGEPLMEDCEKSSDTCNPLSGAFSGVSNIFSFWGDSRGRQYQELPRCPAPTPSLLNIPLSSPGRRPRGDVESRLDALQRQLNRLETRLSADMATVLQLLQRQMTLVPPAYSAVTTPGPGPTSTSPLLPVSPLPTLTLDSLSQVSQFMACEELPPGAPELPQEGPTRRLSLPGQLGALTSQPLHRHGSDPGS

Compound	hERG current change (%, negative = inhibition) at 10uM [%]
CS(=O)(=O)N(CC(=O)N1CCN(c2cccc(Cl)c2)CC1)C1CCCCC1	-4.68
CC1=NN(c2ccccc2)C(=O)/C1=C\c1c(C)[nH]n(-c2ccccc2)c1=O	0.917
O=C(Nc1ccccc1C(F)(F)F)N1CCN(c2ccc3nncn3n2)CC1	-1.32
Cc1nnc(SCC(=O)Nc2ccc([N+](=O)[O-])cc2)n1CC1CCCO1 (stereo not drawn)	-55.5
CNC(=O)c1ccccc1-c1ccccc1	-7.57
CN1CCN(Cc2ccccc2C(F)(F)F)CC1	1.94
Cc1ccc(CC2C(=O)N(c3ccc(C)cc3)C(=O)C2C)cc1 (stereo not drawn)	22.5
Cc1ccc2c(c1)C(=O)C(=O)N2CCOc1ccccc1	-5.83
CCc1cc2c(SCC(=O)C(C#N)=C3N(C)c4ccccc4N3C)ncnc2s1	-25.2
CCOC(=O)c1c(C)oc2c1c(CN1CCN(C(=O)OCC)CC1)c(O)c1ccccc12	7.69
Cc1ccn2c(=O)nc(SCC(=O)NCc3ccco3)nc2c1	4.07
COCCn1c(SCC(=O)N2CCc3ccccc32)nc2c(c1=O)SC(C)C2 (stereo not drawn)	-36.9
O=c1nc2c(-c3ccccc3F)n[nH]n2c2ccccc12	11.7
COc1c(C)cc(Br)cc1C(=O)Nc1ccc(N2CCN(S(C)(=O)=O)CC2)cc1	6.34
CCOC(=O)c1cnc2c([N+](=O)[O-])cnn2c1C	-1.44
CC[n+]1c(-c2ccccc2)csc1Nc1c(C)n(C)n(-c2ccccc2)c1=O.[Br-]	3.58
O=C1CCCC(O)=C1C1C2=C(CCCC2=O)Oc2ccccc21 (stereo not drawn)	-6.91
CCc1ccc(C(=O)COC(=O)c2ccccc2OC)cc1	-6.34
Cc1cccc(-n2ncc3c(N4CC(C)CC(C)C4)ncnc32)c1 (stereo not drawn)	8

Compound	hERG current change (%, negative = inhibition) at 10uM [%]
Cc1ccc(/C=N/NC(=O)C[n+]2ccccc2)s1.[Cl-]	19
CN(C)/C=C1\C=C2C(=O)c3ccccc3N2C1=O	12.9
O=[N+]([O-])c1cc2c(c(CSc3nnc(Nc4ccccc4)s3)c1)OCOC2	14.2
COc1ccccc1CN1CCN(C(=O)c2ccncc2)CC1	4.92
C=CCc1ccccc1OCC(O)CN1CCN(CCN2C(=O)c3cccc4cccc(c34)C2=O)CC1.Cl (stereo not drawn)	-57.8
CCN(CC)c1ccc(/C=N/Nc2nc(C)cc(C)n2)cc1	-15.5
COc1cc(NC(=O)CSc2ncnc3sc4c(c23)CCCC4)c(C(=O)O)cc1OC	-4.76
COc1ccc(N2Cc3ccccc3C2=NC(=O)c2cccc([N+](=O)[O-])c2)cc1	-4.7
COCCn1c(SCC(=O)NC2CC2)nnc1-c1ccc(Cl)cc1	-4.51
O=C(NCc1cccs1)C1CC(=O)N(C2CCCC2)C1 (stereo not drawn)	5.38
Cc1cnc(C(=O)Nc2ccccc2-n2cccc2)cn1	-48.3
C=CCSc1nc(C)c(CCC(C)C)c(=O)[nH]1	-9.72
COc1cc(C(=O)Nc2ccc(S(=O)(=O)Nc3nccc(C)n3)cc2)c([N+](=O)[O-])cc1OC	11.6
CCOc1ccccc1/C=N/NC(=O)c1cc(C(C)C)[nH]n1	8.78
Cc1ccc(-c2nnc(N(C)C(=O)c3ccncc3)s2)cn1	1.62
O=C(OCc1nc2ccccc2s1)c1ccc([N+](=O)[O-])o1	15
O=C(c1ccc(Cl)cc1)C12CN3CN(CN(C3)C1)C2	-1.03
O=C(Cc1ccccc1[N+](=O)[O-])NCCCc1ccccc1	-3.31
CCCNC(=S)N1CCC(NC(=O)c2cccc(C)c2)CC1	11.1

Compound	hERG current change (%, negative = inhibition) at 10uM [%]
CCC(C)(C)NC(=O)C(c1cccn1C)N(C(=O)Cn1nnc2ccccc21)c1ccc(OC)cc1 (stereo not drawn)	4.68
CC(OC(=O)C1CCN(S(=O)(=O)c2ccccc2)CC1)C(=O)Nc1ncc(Cl)cc1Cl (stereo not drawn)	-64
Cc1ccc2c(c1)c(=O)c1c3n2CCN(CC2CO2)C3CC1 (stereo not drawn)	4.27
O=C(COC(=O)CSc1ccc([N+](=O)[O-])cc1)NCC1CCCO1 (stereo not drawn)	12.3
Clc1ccc(Nc2nc(-c3cccnc3)cs2)cc1	1.8
Cc1ccc2c(c1)N(CC(=O)NCCCN1CCCCC1)C(=O)c1cccnc1O2	-0.0427
O=S(=O)(c1ccc2nc(Nc3ccccc3)ccc2c1)N1CCCCC1	3.25
O=c1c2ccccc2nc(/C=C/c2ccc(Br)cc2)n1CCCO	0.999
COc1cc(/C=C2/C(=O)N(c3ccc(C(=O)O)cc3)N=C2C)cc(OC)c1O	14.9
CC(Sc1nc2ncc(Cl)cc2[nH]1)C(=O)c1c(N)n(C)c(=O)n(C)c1=O (stereo not drawn)	-12.7
CCCCCC(C)NC(=O)c1ccoc1C (stereo not drawn)	-10.4
COc1ccc(C(CNC(=O)COc2ccc(F)cc2Br)N2CCCC2)cc1 (stereo not drawn)	-64.5
Nc1ncc(Br)cc1S(=O)(=O)N1CCCCCC1	9.6
Cc1ccc(Cn2ccc(NC(=O)c3cc(-c4ccc(F)cc4)on3)n2)cc1	8.53
CCOc1cccc(C(=O)Nc2cccc(C(=O)NCC(C)C)c2)c1	-42.8
N#CC1(NC(=O)CSc2nnc(Nc3ccccc3F)s2)CCCC1	0.45
CCN(CCCNC(=O)CN1C(=O)COc2ccccc21)c1ccccc1	-5.53
CCOCC(O)CSCc1ccc(Cl)cc1 (stereo not drawn)	1.1
CS(=O)(=O)N(CC(=O)N1CCC(C(N)=O)CC1)c1ccc(Oc2ccccc2)cc1	-23.9

— publication PMC4336329 (PLoS ONE, 2015)
